Test results from PubChem BioAssay AID652104 (National Center for Advancing Translational Sciences (NCATS), 2013).
Among all 410,000 compounds or so, about 7,200 (1.8%) were called active. The inconclusive results got no clear call from the source; some entries with a clear call stand among them for comparison. The call rests on the fitted dose curve; in most records, active means well fitted activation curve with a large enough effect; inconclusive means small, poorly fitted or top-dose-only effect, or another doubt; inactive means no such curve, though single readings can be large or run the other way. Potencies of inconclusive entries are left out as doubtful fits.

assay: qHTS of TDP-43 Inhibitors; settings: TDP-43 expressing yeast growth rescue, BacTiter-Glo, 24 h; growth rescue (activation): at 46.1 µM (top of the series) unless noted; further: nearly all actives have a fitted effect of over 50% in size; on growth rescue (activation): % of control where 0% means no effect
How it was run: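 Galactose-induced TDP-43 yeast, OD600=0.02, compound pinned; 24 hr, 30 deg C; BacTiter-Glo luminescence for growth. Inhibitors of TDP-43 toxicity read as activators.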
Potency means the concentration at half of the fitted maximal effect; tags describe the fitted curve by direction and shape.

SMILES | Potency | growth rescue (activation)
COc1cccc(CNC(=O)COCc2cc(-c3ccc4c(c3)OCO4)on2)c1 | active: 35.5 µM | 
CC1CC(C)CN(c2ncnc3c2cnn3-c2ccc(Cl)cc2)C1 (centres undefined) | inconclusive [activator, partial curve] | 
COc1ccc(Cl)cc1NC(=O)CSc1nnc(COc2ccccc2)n1C | inconclusive [activator, single point] | 
CCOc1ccccc1NC(=O)CN1CCCN(Cc2cccc(Cl)c2)S1(=O)=O |  | inactive: 24.2%
COC(=O)[C@]12CCCCC=C1N(Cc1ccc(Cl)cc1Cl)C(=O)[C@H](CC(=O)N1CCN(C(=O)C3CC3)CC1)C2 | inconclusive [activator, single point] | 
Cc1ccc(N(CC(=O)NC(C)(C)C)C(=O)CCC(=O)Nc2nccs2)cc1C |  | inactive: -8.55%
CN1C(=O)C2C=CC1C1C(=O)N(c3ccccc3)C(=O)C21 (centres undefined) | inconclusive [activator, single point] | 
CC(C)CC(=O)NC(=S)Nc1ccccn1 | inconclusive [activator, full curve, poor fit] | 
Cc1ccc(C)c(NC(=O)COC(=O)c2ccc3c(c2)OCCO3)c1 | inconclusive [activator, full curve] | 
CCC(=O)N1CCN(c2ccc(Cl)cc2NC(=O)Cc2ccc(Cl)cc2)CC1 | inconclusive [activator, single point] | 
CSc1ccc(CC2C(=O)Nc3ccccc32)cc1 (centres undefined) | active: 12.6 µM | 
COc1ccc(-c2sc3ccccc3c2/C=C/c2ccncc2)cc1 |  | inconclusive: -60.8% [activator]
CC1(C(=O)Nc2cccc(Oc3ccccc3)c2)CCN1Cc1ccccc1Cl (centres undefined) | inconclusive [activator, single point] | 
Nc1ccccc1C#CC(=O)c1ccccc1 |  | inconclusive: -64.6% [activator]
Cc1ccccc1N(CC(=O)NC(C)(C)C)C(=O)CCC(=O)Nc1nccs1 | inconclusive [activator, partial curve, poor fit] | 
Cc1cc(N/N=C/c2ccc(O)cc2O)nc(-n2nc(C)cc2C)n1 |  | inactive: 4.62%
Cn1c2ccccc2c2cnn(CC(=O)O)c(=O)c21 |  | inactive: 2.76%
Cc1ccc(C(=O)N2c3ncnn3C3(CCCCC3)[C@@H]3CCCC[C@@H]32)cc1 | active: 22.4 µM | 
C[N+](C)(C)C[C@H](O)CC(=O)O | inconclusive [activator, full curve, poor fit] | 
COC(OC)c1ccc(C#N)c(SCc2ccccc2)n1 | active: 14.1 µM | 
O=C(NCCc1ccc(Cl)cc1)c1ccc2nccnc2c1 | inconclusive [activator, partial curve] | 
CNC(=O)c1c(NC(=O)c2ccco2)sc2c1CCCC2 | inconclusive [activator, single point] | 
N#CC1(C#N)C(c2ccccc2)OC23CCCCC2C1(C#N)C(=N)O3 (centres undefined) |  | inactive: 3.84%

SMILES | Potency | growth rescue (activation)
NC(=S)NNc1cc(Cl)cc(Cl)c1 | inconclusive [activator, single point] | 
CC(=O)/C=C(\C)Nc1ccccc1O |  | inactive: 11.6%
CC(=O)N1N=C(c2cccs2)CC1c1cccc([N+](=O)[O-])c1 (centres undefined) | inconclusive [activator, single point] | 
COc1cc(C(=O)NCC2CCCO2)ccc1OCc1ccc(Cl)cc1Cl (centres undefined) | inconclusive [activator, single point] | 
Cc1cc(C(=O)N2CCCC(C)(C(=O)NS(=O)(=O)C3CC3)C2)n(C(C)(C)C)n1 (centres undefined) |  | inactive: 26.3%
Clc1ccc2c(c1)c1ccccc1n2CN1CCOCC1 | inconclusive [activator, single point] | 
COc1ccc(CC(=O)Nc2ccc(-c3nc4ccccc4s3)cc2Cl)cc1OC |  | inactive: -7.31% [at 9.22 µM]
O=C(CCSCc1cccc(Cl)c1)NCCC1=CCCCC1 | inconclusive [activator, single point] | 
Cc1cccc(N2CCN(C(=O)N3CCOCC3)CC2)c1C | inconclusive [activator, partial curve] | 
Cc1nc2cc(-c3ccccc3)nn2c(C)c1CCC(=O)NCCc1ccccc1 | inconclusive [activator, single point] | 
CCC1CCCCN1S(=O)(=O)c1ccc(NC(=O)c2nc(SC)ncc2Cl)cc1 (centres undefined) | inconclusive [activator, partial curve] | 
Cc1cc2n(n1)SC(Nc1cc(Cl)ccc1Cl)N2 (centres undefined) | inconclusive [activator, single point] | 
O=C(N/N=C/c1cccnc1)c1ccc2c(c1)OCCO2 | inconclusive [activator, full curve, poor fit] | 
O=C(NCc1cccnc1)c1cc(C2CCCN(C(=O)c3cccc(O)c3)C2)on1 (centres undefined) | inconclusive [activator, full curve, poor fit] | 
Cc1ccc(NC(=O)c2ccc(Cl)c(S(=O)(=O)N3CCCC3)c2)nc1 | inconclusive [activator, partial curve] | 
COc1cccc(OCC(=O)O/N=C(\N)c2ccc(OC)c(OC)c2)c1 | active: 11.2 µM | 
CCOc1ccc(NC(=O)CSCc2cnn(-c3ccccc3)c2-n2cccc2)cc1 | active: 20 µM | 
Cc1nn(C)c2c1c(-c1ccccc1)cc(=O)n2C(C)C(=O)NCCc1ccc(Cl)cc1 (centres undefined) | active: 22.4 µM | 
Cc1cc(NC(=O)CC(C)C)cc(-c2nc3ncccc3o2)c1O |  | inactive: 23.5%
CCOC(=O)C1C(=O)C=C(c2ccc(Br)cc2)CC1c1ccco1 (centres undefined) | active: 25.1 µM | 
COc1ccc(NC(=O)c2cc(S(=O)(=O)N3CCCCC3)c[nH]2)cc1Cl | inconclusive [activator, full curve, poor fit] | 
COc1c(S(=O)(=O)N2CCN(C(=O)c3ccco3)CC2)ccc(Cl)c1Cl | active: 12.6 µM | 
COc1ccc(-n2c(SCC(=O)Nc3cc(C)cc(C)c3)nc3c(oc4ccccc43)c2=O)cc1 |  | inactive: 26.2%

SMILES | Potency | growth rescue (activation)
COc1ccc(CNC(=O)CCc2c(C)nn(-c3ccc(N4CCCC4)nn3)c2C)c(OC)c1 |  | inactive: 2.9%
O=C(Nc1ccccc1C(=O)OCn1nnc2ccccc2c1=O)c1ccco1 | inconclusive [activator, partial curve] | 
CC(C)C[C@H](NC(=O)c1[nH]cnc1C(=O)Nc1ccccc1F)C(=O)OC(C)(C)C | inconclusive [activator, partial curve, poor fit] | 
CCCC1C2C(=O)N(c3cccc(C)c3)C(=O)C2ON1c1ccccc1 (centres undefined) | inconclusive [activator, single point] | 
CC(C)(C)c1ccc(C(=O)Nc2nnc(C3=COCCO3)o2)cc1 | inconclusive [activator, partial curve] | 
Clc1ccc(Cc2ccc(Cl)nn2)c(Cl)c1 | inconclusive [activator, single point] | 
CC(C)Cn1c(-c2csc3c2CCCC3)n[nH]c1=S | inconclusive [activator, single point] | 
COc1cccc(NC(=O)CCSc2ccc(C)cc2)c1 | inconclusive [activator, partial curve] | 
CCCOc1ccc(S(=O)(=O)NCc2ccc(OC)cc2)cc1 | inconclusive [activator, single point] | 
O=C(CCSc1nnc(-c2ccncc2)o1)Nc1cccc(Cl)c1 | inconclusive [activator, single point] | 
O=C(Nc1cccnc1Cl)c1ccc(Cl)c([N+](=O)[O-])c1 | inconclusive [activator, partial curve] | 
CC(C)(C)OC(=O)N1CCC(c2c(C(=O)Nc3ccc4c(c3)OCCO4)cnn2-c2ccc(F)cc2)CC1 | inconclusive [activator, single point] | 
COc1ccc(OC)c(NCc2cccn2-c2nnc(N3CCC(C)CC3)s2)c1 | inconclusive [activator, full curve, poor fit] | 
COC(=O)c1cn(-c2ccccc2)nc1-c1ccc(OC)cc1 | inconclusive [activator, partial curve] | 
COc1ccc(NC2CCCN(C(=O)c3ccccc3C(F)(F)F)C2)cc1 (centres undefined) | inconclusive [activator, partial curve] | 
O=C(CCSCc1ccc(Cl)cc1)NC1CCCC1 | inconclusive [activator, partial curve] | 
Cc1ccc(C(CC(=O)NCC2(c3ccccc3)CCCC2)c2ccccc2)c(O)c1 (centres undefined) |  | inactive: 7.74%
Cc1ccc(CCNC(=O)CN2C(=O)COc3ccc(S(=O)(=O)N4CCCCC4)cc32)cc1 | inconclusive [activator, partial curve] | 
c1csc(-c2nnc(N3CCCCCC3)c3ccccc23)c1 |  | inactive: -21.2%
COc1ccc2oc(C(=O)OCC(=O)Nc3ccccc3)c(C)c2c1 | inconclusive [activator, partial curve] | 
O=C1CN(C(=O)c2ccc(Cl)cc2Cl)C(c2ccc(F)cc2)c2cc(F)ccc2N1 (centres undefined) | inconclusive [activator, full curve, poor fit] | 
CCc1nc2ccc(C(=O)Nc3cc(-c4ccccc4)ccc3OC)cn2c1N(C)CCCc1ccccc1 | active: 20 µM | 
O=C(c1cccc(S(=O)(=O)N2CCCCCC2)c1)N1CCN(c2ccccc2F)CC1 | inconclusive [activator, single point] | 
